Data taken from the supplement of paper PMC4967469.
By IC50 is meant the dose at which the fit gives 50% viability; a fit beyond the top or the lowest dose is shown as a bound at that dose. AUC sums up the same curve from the lowest dose to the 256-fold higher top dose; the more sensitive the line, the further below 1. For some of these results: The top dose, if marked as inferred, was calculated from the reported fits.

How the values were obtained:
Test in all cases: Viability of human cancer cell lines after 72 h of drug (GDSC screen)
17-AAG = compound: C=CCNC1=C2C[C@@H](C)C[C@H](OC)[C@H](O)[C@@H](C)/C=C(\C)[C@H](OC(N)=O)[C@@H](OC)/C=C\C=C(/C)C(=O)NC(=CC1=O)C2=O [17-AAG]; details: top dose 1 µM
Experimental: (§1)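 Human cancer cell lines in 384-well plates, medium with 10% serum, drug for 72 h over a 256-fold dose range (nine 2-fold or five 4-fold steps up to the top dose). Adherent lines were fixed and stained with the nucleic acid dye Syto60, suspension lines read with resazurin; signal relative to control wells, capped at 0 and 100%. One two-parameter sigmoid per drug and line, fitted in a mixed model over all curves with the slope shared within a line.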

CCT018159 = compound: CCc1cc(-c2n[nH]c(C)c2-c2ccc3c(c2)OCCO3)c(O)cc1O [CCT018159]; details: top dose 10 µM; top dose inferred
Experimental: as §1

BIX02189 = compound: CN(C)Cc1cccc(N=C(c2ccccc2)c2c(O)[nH]c3cc(C(=O)N(C)C)ccc23)c1 [BIX02189]; details: top dose 20 µM; top dose inferred
Experimental: as §1

Dimethyloxalylglycine = compound: COC(=O)CNC(=O)C(=O)OC [Dimethyloxalylglycine]; details: top dose 4000 µM; top dose inferred
Experimental: as §1

OSI-027 = compound: COc1cccc2cc(-c3nc([C@H]4CC[C@H](C(=O)O)CC4)n4ncnc(N)c34)[nH]c12 [OSI-027]; details: top dose 20 µM
Experimental: as §1

Vismodegib = compound: CS(=O)(=O)c1ccc(C(=O)Nc2ccc(Cl)c(-c3ccccn3)c2)c(Cl)c1 [Vismodegib]; details: top dose 10 µM; top dose inferred
Experimental: as §1

VX-11e = compound: Cc1cnc(Nc2ccc(F)cc2Cl)nc1-c1c[nH]c(C(=O)N[C@H](CO)c2cccc(Cl)c2)c1 [VX-11e]; details: top dose 5.12 µM; top dose inferred
Experimental: as §1

TG101348 = compound: Cc1cnc(Nc2ccc(OCCN3CCCC3)cc2)nc1Nc1cccc(S(=O)(=O)NC(C)(C)C)c1 [TG101348]; details: top dose 10.24 µM
Experimental: as §1

UNC1215 = compound: O=C(c1ccc(C(=O)N2CCC(N3CCCC3)CC2)c(Nc2ccccc2)c1)N1CCC(N2CCCC2)CC1 [UNC1215]; details: top dose 1 µM; top dose inferred
Experimental: as §1

Cell Line	AUC (17-AAG)	IC50 (17-AAG) [µM]	AUC (CCT018159)	IC50 (CCT018159) [µM]	AUC (BIX02189)	IC50 (BIX02189) [µM]	AUC (Dimethyloxalylglycine)	IC50 (Dimethyloxalylglycine) [µM]	AUC (OSI-027)	IC50 (OSI-027) [µM]	AUC (Vismodegib)	IC50 (Vismodegib) [µM]	AUC (VX-11e)	IC50 (VX-11e) [µM]	AUC (TG101348)	IC50 (TG101348) [µM]	AUC (UNC1215)	IC50 (UNC1215) [µM]
Ca9-22 (head and neck, adherent)	0.858	0.73	0.808	4.73	0.949	> 20	0.708	918	0.731	5.35	0.981	> 10	0.93	> 5.12	0.896	> 10.2	0.987	> 1
HT-1080 (fibrosarcoma, adherent)	0.571	0.0954	0.754	3.06	0.989	> 20	0.578	399	0.808	9.09	0.959	> 10	0.986	> 5.12	0.963	> 10.2	0.98	> 1
HT-3 (cervix, adherent)	0.763	0.365	–	–	0.972	> 20	0.665	724	0.905	> 20	0.987	> 10	0.971	> 5.12	0.877	> 10.2	0.985	> 1
MIA-PaCa-2 (pancreas, adherent)	0.239	–	0.805	5.65	0.985	> 20	0.416	144	0.975	> 20	0.931	> 10	0.981	> 5.12	0.977	> 10.2	0.956	> 1
CFPAC-1 (pancreas, adherent)	0.744	0.352	0.868	> 10	0.97	> 20	0.265	47.8	0.59	2.3	0.97	> 10	0.928	> 5.12	0.837	8.33	0.981	> 1
NCI-H23 (lung adenocarcinoma, adherent)	0.419	0.0376	0.866	8.8	0.984	> 20	0.797	1860	0.905	> 20	0.976	> 10	0.928	> 5.12	0.86	8.45	0.987	> 1
MOLT-4 (lymphoblastic leukaemia, suspension)	0.954	> 1	0.854	5.68	0.834	9.77	0.671	677	0.514	1.36	0.975	> 10	0.965	> 5.12	0.758	2.95	0.985	> 1
CAL-85-1 (breast, adherent)	0.969	> 1	0.924	> 10	0.961	> 20	0.384	–	0.48	1.09	0.967	> 10	0.795	3.16	0.801	6.69	0.977	> 1
Raji (Burkitt lymphoma, suspension)	0.984	> 1	0.962	> 10	0.942	> 20	0.638	584	0.698	4.31	0.939	> 10	0.984	> 5.12	0.947	> 10.2	0.988	> 1
SAS (head and neck, adherent)	0.61	0.13	0.8	5.47	0.917	> 20	0.553	355	0.616	2.71	0.948	> 10	0.878	> 5.12	0.82	6.76	0.982	> 1
NCI-H1341 (small cell lung carcinoma, suspension)	0.538	0.0781	0.827	4.93	–	–	–	–	–	–	0.983	> 10	–	–	–	–	0.989	> 1
RH-18 (rhabdomyosarcoma, adherent)	0.821	0.69	0.896	> 10	–	–	–	–	–	–	0.98	> 10	–	–	–	–	0.983	> 1
OACM5-1 (oesophagus, semi-adherent)	0.873	> 1	0.986	> 10	0.779	9.23	–	–	0.203	0.145	0.984	> 10	0.895	> 5.12	0.665	1.96	0.976	> 1
JHOS-4 (ovary, adherent)	0.979	> 1	0.919	> 10	–	–	–	–	–	–	0.98	> 10	–	–	–	–	0.976	> 1
NCI-H146 (small cell lung carcinoma, suspension)	0.992	> 1	0.975	> 10	–	–	–	–	–	–	0.988	> 10	–	–	–	–	0.993	> 1
MV-4-11 (leukaemia, suspension)	0.61	0.118	0.699	2.01	0.815	8.62	0.513	270	0.083	< 0.0781	0.859	6.03	–	–	–	–	0.983	> 1
